Results taken from PubChem BioAssay AID624417 (National Center for Advancing Translational Sciences (NCATS), 2012).
Out of some 410,000 compounds screened, about 6,400 (1.6%) were called active. Inconclusive results, whose numbers are uncertain, are shown with a selection of clear calls. Calls follow the shape of the dose curve; as a rule, active = well fitted inhibition curve with a large enough effect; inconclusive = small, poorly fitted or top-dose-only effect; inactive = no such curve, though single readings can be large or run the other way. Potencies of inconclusive entries are left out as doubtful fits.

Target: Glucagon-like peptide 1 receptor (Homo sapiens) (UniProt P43220)
UniProt P43220, sequence (P43220 whole entry, looked up): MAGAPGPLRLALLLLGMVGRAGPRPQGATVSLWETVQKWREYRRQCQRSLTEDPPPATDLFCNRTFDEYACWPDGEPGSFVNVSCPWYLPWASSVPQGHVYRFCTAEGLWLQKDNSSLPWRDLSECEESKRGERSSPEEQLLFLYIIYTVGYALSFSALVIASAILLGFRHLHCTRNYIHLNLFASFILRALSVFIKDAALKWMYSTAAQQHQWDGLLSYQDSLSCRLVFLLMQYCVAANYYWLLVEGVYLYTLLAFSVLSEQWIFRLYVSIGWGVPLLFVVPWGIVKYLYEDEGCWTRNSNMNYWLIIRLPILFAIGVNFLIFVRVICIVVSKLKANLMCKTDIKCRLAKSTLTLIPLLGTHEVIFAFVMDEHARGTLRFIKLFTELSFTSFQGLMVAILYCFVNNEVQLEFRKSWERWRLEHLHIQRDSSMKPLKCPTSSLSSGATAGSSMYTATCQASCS
Experiment: qHTS of GLP-1 Receptor Inverse Agonists (Inhibition Mode); also: nearly all actives have a fitted effect of over 55% in size
Details: HEK293 GLP-1R CRE-luciferase, luminescence, 24 h, GLP-1R form is constitutively active; activity change, negative = inhibition: at 38.3 µM (top of the series) unless noted
Summary of the method: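 Constitutively active GLP-1R drives a cAMP-responsive luciferase in stably transfected HEK293 cells; test compounds are added after overnight (12 h) attachment and left 24 hr, and signal loss in luminescence marks inhibition.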
% is scaled to controls: 0 for no effect and ±100 for the full control effect; potency is read from the fitted curve at half-maximal effect; tags tell the direction and shape of the fitted curve.

| Compound | activity change, negative = inhibition | Potency |
| --- | --- | --- |
| N#Cc1cccc(NCC(=O)Nc2ccc3c(c2)OCCO3)c1 | inactive: -20.6% |  |
| CC(C)C(=O)Nc1ccc(Sc2ccc(F)cc2)cc1 |  | inconclusive [inhibitor, single point] |
| COc1cc2c(cc1OC)CN(c1nc(CN3CCOCC3)nc3sc4c(c13)CCCC4)CC2 |  | inconclusive [inhibitor, partial curve, poor fit] |
| CC/C(=N\NC(=S)Nc1cc(C)ccc1C)c1ccc(OC(F)F)cc1 |  | inconclusive [inhibitor, single point] |
| COc1ccccc1N1CCN(C(=O)c2ccc(-c3ccccc3)cc2)CC1 |  | inconclusive [inhibitor, partial curve, poor fit] |
| Cc1nnc(NC(=O)Nc2cccc(Cl)c2)s1 |  | inconclusive [inhibitor, single point] |
| COC(=O)/C=C1/S/C(=N/NC(=O)c2ccccc2C)NC1=O | inactive: 0% |  |
| COc1ccccc1/C=C(/CC(=O)NCc1ccc2c(c1)OCO2)c1nc2ccccc2s1 |  | inconclusive [inhibitor, single point] |
| O=C(CCC1CCCN(C(=O)CCCc2ccccc2)C1)N1CCN(c2ccccn2)CC1 (stereo not given) |  | inconclusive [inhibitor, single point] |
| O=C(NCCCN1CCCC1=O)C1CCN(S(=O)(=O)N2CCOCC2)CC1 |  | inconclusive [inhibitor, single point] |
| O=[N+]([O-])CC(=Nc1ccc(Cl)cc1)N/N=C\c1oc(O)c2ccccc12 |  | inconclusive [inhibitor, single point] |
| COC(=O)c1ccc2c(c1)S(=O)(=O)NC2C (stereo not given) | inactive: 5.42% |  |
| CC(C)CN(C(=O)CN1C(=O)NC2(CCc3ccccc32)C1=O)C1CCS(=O)(=O)C1 (stereo not given) | inactive: 1.77% |  |
| Cc1ccccc1NC(=O)c1c(C)nc(SCC(=O)OCc2ccccc2)c(C#N)c1-c1ccc(F)cc1 |  | inconclusive [inhibitor, single point] |
| Cc1ccc(S(=O)(=O)N2C(c3ccccc3)CC(=O)C3CN(S(=O)(=O)c4ccc(Cl)cc4)C(c4ccccc4)CC32)cc1 (stereo not given) |  | inconclusive [inhibitor, full curve, poor fit] |
| O=C1NC2(CCN(Cc3ccccc3)CC2)Oc2ccccc21 |  | inconclusive [inhibitor, single point] |
| COc1ccc(OCc2cc(C(=O)N(C)Cc3cc(C)no3)no2)c(Cl)c1 |  | inconclusive [inhibitor, single point] |
| Nc1c(C(=O)c2ccccc2)sc2nsc(SCCN3CCCC3)c12 |  | inconclusive [inhibitor, partial curve, poor fit] |
| O=C(NCCC1=CCCCC1)c1ccc2c(c1)N(Cc1ccccc1)C(=O)c1ccccc1S2=O (stereo not given) |  | inconclusive [inhibitor, partial curve] |
| O=C(CCCN1C(=O)[C@H]2CC=CC[C@H]2C1=O)NCc1nc(-c2ccc(Cl)cc2)no1 |  | inconclusive [inhibitor, single point] |

| Compound | activity change, negative = inhibition | Potency |
| --- | --- | --- |
| Cc1ccc(-c2nc3c4ccccc4ccn3c2Cc2cccc(Cl)c2)cc1 |  | inconclusive [inhibitor, partial curve, poor fit] |
| O=S(=O)(Cc1cc(Cl)nc(-c2ccccc2)n1)c1ccccc1 | inactive: 0.246% |  |
| Oc1ccccc1C1CC(c2cccs2)=NC(c2cccc(Br)c2)N1 (stereo not given) |  | inconclusive [inhibitor, single point] |
| C=CCN(c1nc(C)cc(OC)n1)S(=O)(=O)c1ccc(C)cc1 |  | inconclusive [inhibitor, single point] |
| CCc1ccc(CN(Cc2cn[nH]c2-c2ccc(OC)cc2)C(=O)Nc2ccc(Br)cc2)cc1 |  | inconclusive [inhibitor, single point] |
| O=C(Nc1cccc(C(F)(F)F)c1)Nc1ccc2snnc2c1 |  | active: 11.2 µM |
| O=C(NCc1ccc(OC(F)(F)F)cc1)c1cc(-c2ccccc2)nn1CC1CC(c2cccnc2)=NO1 (stereo not given) |  | inconclusive [inhibitor, single point] |
| CCc1nn(CC(=O)NCCOC)c(=O)c2cc3cc(F)ccc3n12 | inactive: 4.81% |  |
| CCOc1ccccc1NC(=S)N(CCCN1CCOCC1)Cc1cn(C)c2ccccc12 |  | inconclusive [inhibitor, partial curve, poor fit] |
| COc1ccc(-c2ccc(-c3cc(=O)oc4cc(OC)c(OC)c(OC)c34)cc2)cc1OC | inactive: 13.7% |  |
| Cc1ccccc1N1CCN(C2CCCN(C(=O)CCC3(C)CC3)C2)CC1 (stereo not given) |  | inconclusive [inhibitor, partial curve, poor fit] |
| Cc1ccc(/C=N/NC(=O)c2cc(-c3ccncc3)nc3ccccc23)o1 |  | inconclusive [inhibitor, partial curve, poor fit] |
| CCc1ccc(NC(=O)Cn2cnc3sc(C)c(S(=O)(=O)N4CCOCC4)c3c2=O)cc1 |  | inconclusive [inhibitor, full curve, poor fit] |
| C=CCc1cc(Cl)ccc1OCCCNC(C)CC (stereo not given) |  | inconclusive [inhibitor, partial curve] |
| CCCOc1ccc(C2C(=O)N(C3CCCCCC3)CC(=O)N2CCC)cc1OC (stereo not given) | inactive: 1.64% |  |
| Fc1cccc(Cc2c(-c3ccco3)nc3c4ccccc4ccn23)c1 |  | inconclusive [inhibitor, single point] |
| COc1cccc(N2CC(O)=C(c3nc4ccccc4s3)C2=N)c1 |  | inconclusive [inhibitor, full curve, poor fit] |
| C=C1SC(Nc2c(C)cc(C)cc2C)=NC12CCCCC2 |  | inconclusive [inhibitor, full curve, poor fit] |
| COC(=O)C1=C(C)Nc2nc(SCc3ccccc3)[nH]c(=O)c2C1c1cccs1 (stereo not given) |  | inconclusive [inhibitor, partial curve, poor fit] |
| CCN(CC)c1ccc(Nc2nc(Cl)ncc2Br)cc1 |  | inconclusive [inhibitor, single point] |
